The whole screen tested about 310,000 compounds, of which about 14,000 (4.5%) showed an effect of 50% or more. Effects have a minus sign here. The list shows a part of the results.
Target: human ether-à-go-go-related gene (hERG) potassium channel (human, UniProt Q12809)
Experiment: primary screen, population patch clamp on CHO cells stably expressing hERG
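Note: peak tail current of the secondary pulse compared with the same well before compound.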

Chain of human ether-à-go-go-related gene (hERG) potassium channel (Q12809 whole entry, looked up): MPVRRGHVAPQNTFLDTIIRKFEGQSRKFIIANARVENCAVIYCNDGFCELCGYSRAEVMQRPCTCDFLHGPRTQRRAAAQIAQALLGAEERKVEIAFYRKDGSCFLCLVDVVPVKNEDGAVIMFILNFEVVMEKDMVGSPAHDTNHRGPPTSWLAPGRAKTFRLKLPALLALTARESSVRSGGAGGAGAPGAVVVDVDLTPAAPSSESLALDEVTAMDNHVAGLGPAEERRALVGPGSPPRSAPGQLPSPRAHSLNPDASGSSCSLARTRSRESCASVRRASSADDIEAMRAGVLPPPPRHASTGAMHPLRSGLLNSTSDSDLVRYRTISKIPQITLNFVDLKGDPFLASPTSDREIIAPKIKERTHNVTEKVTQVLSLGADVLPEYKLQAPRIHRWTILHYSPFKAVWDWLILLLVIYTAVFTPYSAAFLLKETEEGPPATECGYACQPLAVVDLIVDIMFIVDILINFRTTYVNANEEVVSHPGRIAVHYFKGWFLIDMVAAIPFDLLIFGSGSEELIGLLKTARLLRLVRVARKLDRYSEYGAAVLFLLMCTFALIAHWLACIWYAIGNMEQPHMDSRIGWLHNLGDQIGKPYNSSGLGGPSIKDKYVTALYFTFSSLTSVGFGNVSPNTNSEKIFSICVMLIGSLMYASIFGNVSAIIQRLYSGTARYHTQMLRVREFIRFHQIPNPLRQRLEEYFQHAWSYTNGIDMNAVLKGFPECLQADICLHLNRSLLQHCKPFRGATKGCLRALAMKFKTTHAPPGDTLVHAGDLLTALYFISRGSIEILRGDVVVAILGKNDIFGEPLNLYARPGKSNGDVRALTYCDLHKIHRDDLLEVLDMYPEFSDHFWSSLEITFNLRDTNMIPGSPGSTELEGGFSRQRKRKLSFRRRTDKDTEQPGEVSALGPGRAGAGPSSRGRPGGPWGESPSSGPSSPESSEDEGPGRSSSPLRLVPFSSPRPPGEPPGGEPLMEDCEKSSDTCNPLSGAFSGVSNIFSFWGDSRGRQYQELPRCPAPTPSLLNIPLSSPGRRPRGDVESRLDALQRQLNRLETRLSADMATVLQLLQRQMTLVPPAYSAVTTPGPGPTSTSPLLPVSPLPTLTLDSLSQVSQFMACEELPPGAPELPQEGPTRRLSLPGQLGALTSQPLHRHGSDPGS

Row | SMILES | hERG current change (%, negative = inhibition) at 10uM
1 | CCCCCCCNC(=O)C1(CC2CC(c3ccc(Cl)cc3)=NO2)CCNCC1 (centres unmarked) | -63.1%
2 | COc1ccc(C2=NN(C(C)=O)C(c3cccs3)C2)cc1OC (centres unmarked) | -2.48%
3 | CN(C)c1ccnc(Nc2ccc(O)cc2)c1C#N | 29.4%
4 | CCc1ccc(CCC(=O)Nc2ccc(S(N)(=O)=O)cc2)o1 | 2.43%
5 | O=C(CCC(=O)OCC(=O)c1ccc(C(F)(F)F)cc1)OCC(=O)c1ccc(C(F)(F)F)cc1 | 20.4%
6 | COc1ccccc1CNC(=O)CCCC(=O)n1ncc2cc(C)ccc21 | 1.65%
7 | CCN(CC)c1ccc(NC(=O)c2cnn(CC)c2)cc1 | -2.83%
8 | CC1(C)CSC(Nc2ccc(F)c(Cl)c2)=N1 | -10.5%
9 | COc1ccc(CN2CCNC(=O)C2CC(=O)NCCCC2CCCC2)c(F)c1 (centres unmarked) | -31.5%
10 | O/N=C1\CCC2CN(C3CCCCC3)CC2C1 (centres unmarked) | -6.55%
11 | O=C(Cc1ccccc1Cl)N1CCN(c2ncccn2)CC1 | 13.8%
12 | Cc1ccc(-n2nnnc2SCc2nnc(-c3ccccc3Br)o2)cc1 | -12.2%
13 | COc1cc(-c2nnc(SC/C=C/c3ccccc3)n2N)cc(OC)c1OC | -3.66%
14 | O=C(CN(Cc1ccco1)C(=O)c1ccc([N+](=O)[O-])cc1)Nc1ccccc1C(F)(F)F | -31.5%
15 | O=Cc1cn(Cc2c(F)cccc2Cl)c2ccccc12 | 6.77%
16 | N#CC1=C2SCN(Cc3ccco3)CN2C(=O)CC1c1ccccc1F (centres unmarked) | 2.3%
17 | CCN(C(=O)COC(=O)c1ccc(OCc2c(C)noc2C)cc1)c1ccccc1 | -3.74%
18 | Cn1c(SCCOc2ccc(F)cc2)nnc1-c1ccncc1 | -44.4%
19 | COc1ccccc1/C=C/C(=O)Nc1cccc(S(=O)(=O)NC2=NCCCCC2)c1 | 3.64%
20 | COc1cc2[nH]c(=S)n(CCN3CCOCC3)c(=O)c2cc1OC | 0.519%
21 | CCCS(=O)(=O)N1CCN(c2ccccn2)CC1 | -5.62%
22 | N#Cc1cc2cc3c(cc2nc1SCC(=O)N1CCOCC1)OCCO3 | 23%

Row | SMILES | hERG current change (%, negative = inhibition) at 10uM
23 | CC1=C2C(=O)OC(c3ccoc3)C2(C)CCC1 (centres unmarked) | -24.5%
24 | N#CCc1ccc(OC(=O)Nc2ccccc2)cc1 | -22.5%
25 | Cc1cccc(N2CCN(C(=O)CSc3ccc4c(c3)OCCO4)CC2)c1C | -2.29%
26 | CSC1=C(C#N)C(c2ccc(C)cc2)C2=C(CCCC2=O)N1 (centres unmarked) | -6.02%
27 | c1ccc(-c2nnc(N3CCN(c4ccccn4)CC3)c3ccccc23)cc1 | -40.6%
28 | CC(=O)NC(c1ccco1)c1ccc2cccnc2c1O (centres unmarked) | 0.0798%
29 | COc1ccccc1-c1nc2ccccc2nc1-c1ccccc1OC | -0.122%
30 | Cc1nc2c(cnn2-c2ccccc2Cl)c(=O)n1-c1ccc(C(C)C)cc1 | 14%
31 | COc1ccc(OC)c(-c2cc(C(=O)N3CCOCC3)no2)c1 | 7.74%
32 | O=C(N[C@@H](Cc1ccccc1)C(=O)CCl)OCc1ccccc1 | -0.696%
33 | COc1ccc(NC(=O)COC(=O)c2ccc(NS(=O)(=O)/C=C/c3ccccc3)cc2)cc1 | 0.149%
34 | CCN(CCNS(=O)(=O)c1ccc2c(c1)oc(=O)n2C)c1ccccc1 | -8.95%
35 | CCC1CCCCN1C(=S)Nc1cccc(S(=O)(=O)N(C)C)c1 (centres unmarked) | -6.73%
36 | O=C(Nc1cccc(-c2csc(Nc3cccc(C(F)(F)F)c3)n2)c1)c1cc([N+](=O)[O-])cc(C(F)(F)F)c1 | 5.05%
37 | CCc1ccc(C2CC(c3ccccc3)n3ncnc3N2)cc1 (centres unmarked) | -17.2%
38 | Nc1nc(O)c(Sc2ccccc2[N+](=O)[O-])c(=O)[nH]1 | 17.7%
39 | CC1CCCCC12NC(=O)N(CC(=O)NC(=O)Nc1ccc3c(c1)OCCO3)C2=O (centres unmarked) | 20%
40 | CCOC(=O)c1c(NC(=O)CCC(=O)N(CC)CC)sc2c1CC(C)(C)OC2 | -9.08%
41 | O=C(O)c1ccc(CSc2nnc(-c3ccncc3)n2CC2CCCO2)cc1 (centres unmarked) | -1.78%
42 | CCN(CC(=O)Nc1c(F)cccc1F)C(=O)CSC(=S)N1CCCC1 | -2.91%
43 | O=C(CNC(=O)Cn1cnc2sc3c(c2c1=O)CCCC3)NCc1ccccn1 | 9.49%
44 | Cc1ccc(-n2nc(N)c3c(=O)oc(N(C)C)nc32)cc1 | -1.41%

From publication PMC4336329 (PLoS ONE, 2015)
